The list shows a part of the results. Shown are side measurements of this screen, not its main read-out; they come without a call.
Columns and labels:
Assay in all cases: Primary Screen for Target Class Profiling of Small Molecule Inhibitors of Methyltransferases
[1] = target: Glycine N-methyltransferase (Homo sapiens) (UniProt Q14749); details: purified enzyme, MTase-Glo SAH luminescence; measured here: GNMT inhibition; at 40 µM; stronger effect = lower value
Method in brief: (§1)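 Each enzyme was reacted with SAM and its substrate, with compounds tested once at 40 uM; SAH formed was read by MTase-Glo luminescence.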

[2] = target: Guanidinoacetate N-methyltransferase (Homo sapiens) (UniProt Q14353); details: purified enzyme, MTase-Glo SAH luminescence; measured here: GAMT inhibition; at 40 µM; stronger effect = lower value
Method in brief: as §1

[3] = target: Histamine N-methyltransferase (Homo sapiens) (UniProt P50135); details: purified enzyme, MTase-Glo SAH luminescence; measured here: HNMT inhibition; at 40 µM; stronger effect = lower value
Method in brief: as §1

[4] = target: Nicotinamide N-methyltransferase (Homo sapiens) (UniProt P40261); details: purified enzyme, MTase-Glo SAH luminescence; measured here: NNMT inhibition; at 40 µM; stronger effect = lower value
Method in brief: as §1

[5] = target: Phenylethanolamine N-methyltransferase (Homo sapiens) (UniProt P11086); details: purified enzyme, MTase-Glo SAH luminescence; measured here: PNMT inhibition; at 40 µM; stronger effect = lower value
Method in brief: as §1
% is set by controls: 0 for no effect and ±100 for the full control effect.

| SMILES | activity change, negative = inhibition [1] [%] | activity change, negative = inhibition [2] [%] | activity change, negative = inhibition [3] [%] | activity change, negative = inhibition [4] [%] | activity change, negative = inhibition [5] [%] |
| --- | --- | --- | --- | --- | --- |
| CC(=O)O[C@@H]1[C@@H](OC(=O)/C=C/c2ccccc2)[C@@H](OC(C)=O)[C@H](O[C@H]2[C@@H]3C=CO[C@@H](O[C@@H]4O[C@H](CO)[C@@H](O)[C@H](O)[C@H]4O)[C@@H]3[C@@]3(CO)O[C@@H]23)O[C@H]1C | 0 | 4.89 | 8 | -6.37 | 7.18 |
| CCOC(=O)c1cc2n(n1)CC(C)(C(=O)NC1CCCCCC1)N(c1cc(C)cc(C)c1)C2=O (stereo not drawn) | 4.89 | 0.641 | -2.57 | 4.97 | 2.8 |
| CCCn1c(=O)c2ccc(C(=O)NC3CCCC3)cc2n2c(SCC(=O)Nc3cccc(C)c3)nnc12 | 8.01 | 0.064 | 11.6 | 1.32 | 8.63 |
| c1ccc(-c2cnn3cc(-c4ccc(OCCN5CCOCC5)cc4)cnc23)cc1 | -2.89 | 6.9 | 1.89 | -8.24 | 3.42 |
| CCCn1c(=O)c2ccc(C(=O)NC(C)C)cc2n2c(=O)n(CC(=O)c3cccc(Cl)c3)nc12 | 4.95 | 3.22 | 11.3 | -5.44 | 7.04 |
| O=C(O)CCC/C=C\C[C@@H]1[C@@H](/C=C/[C@H](O)C2Cc3ccccc3C2)[C@@H](F)C[C@@H]1O | -8.89 | 6.33 | -0.066 | -4.29 | 7.73 |
| COc1ccc(CNCc2cccc3ccccc23)cc1 | 1.15 | 2.43 | -0.298 | -9.6 | 2.01 |
| NC(=O)[C@@H](CCC(F)(F)F)N(Cc1ccc(-c2ncon2)cc1F)S(=O)(=O)c1ccc(Cl)cc1 | – | 3.5 | – | -21.9 | -5.6 |
| COC[C@@H]1CN(C(=O)CC2=CCCCC2)C[C@H]1c1ccncc1 | -5.73 | -12.4 | -3.12 | -11.5 | -9.44 |
| CC1(C(=O)NC2CCCCCC2)Cn2c(nc3ccccc32)C(=O)N1Cc1cccs1 (stereo not drawn) | -4.54 | 1.33 | 5.04 | -12.9 | -1.26 |
| COc1ccccc1CN1C(=O)c2nc3ccccc3n2CC1(C)C(=O)NC1CCCCC1C (stereo not drawn) | 2.03 | 0 | 2.73 | 1 | -0.389 |
| O=C(Cn1c(=O)oc2ccccc21)N1CCCC(Cc2noc(-c3ccccc3)n2)C1 (stereo not drawn) | -3.01 | -0.821 | -0.953 | -13.2 | -2.52 |
| CCOc1ccc(CNC(=O)c2cc3n(n2)CC(C)(C(=O)NCc2ccc(F)cc2)N(C)C3=O)cc1 (stereo not drawn) | -1.64 | -4.04 | -11.6 | 7.75 | -1.53 |
| CN(CC1(C)CCCO1)S(=O)(=O)c1ccc(Cl)c(S(N)(=O)=O)c1 (stereo not drawn) | -0.191 | 2.91 | 3.73 | -11.3 | -1.87 |

Source: PubChem BioAssay AID1745853 (National Center for Advancing Translational Sciences (NCATS), 2022)
